Reference: a collection of fitness landscapes (doi:10.1016/j.celrep.2020.107928)
The full ranking holds about 81,000 sequences; the median of “one-hybrid fitness for binding parS DNA” is about -0.17, and the highest 2% start at about 0.51. This is one part of the list.

B1: Caulobacter ParB omega fusion; a variant is named by its letters at X, in order, B8GW30 (parent)
chain: MESVVVGEPGMSEGRRGLGRGLSALLGEVDAAPAQAPGEQLGGSREAPIEILQRNPDQPRRTFREEDLEDLSNSIREKGVLQPILVRPSPDTAGEYQIVAGERAWRAAQRAGLKTVPIMVRELDDLAVLEIGIIENVQRADLNVLEEALSYKVLMEKFERTQENIAQTIGKSXSHVANXMRLLXLPDEVQSYLVSGELTAXHARAIAAAADPVALAKQIIEGGLSVRETEALARKAPNLSAGKSKGGRPPRVKDTDTQALESDLSSVLGLDVSIDHRGSTGTLTITYATLEQLDDLCNRLTRGI

Variants of: B1
Assay: one-hybrid fitness for binding parS DNA (scaled: cognate 1, non-cognate 0); higher = stronger binding
Conditions: with parS DNA site
Procedure, shortened: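 In E. coli USO, a HIS3 reporter with its site placed 19 bp from the promoter was used to select Caulobacter ParB variants randomised at four specificity codons. Growth lasted 48 hours at 37°C on histidine-free M9 containing 0.1 mM IPTG and 5 mM 3-AT. Fitness was taken as the log change in variant-to-wild-type read ratio from Illumina sequencing of pre- and post-selection plasmids, rescaled between the non-cognate and cognate sites.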

one-hybrid fitness for binding parS DNA, 0.298:
WNNE

one-hybrid fitness for binding parS DNA, 0.556:
RWEC

one-hybrid fitness for binding parS DNA, 0.316:
RQVN

one-hybrid fitness for binding parS DNA, 0.51:
RGCT

one-hybrid fitness for binding parS DNA, 0.437:
RLIY

one-hybrid fitness for binding parS DNA, ≤ 0.2:
HPLV
LIIM
GHER
MVVG
TGHA
GHAS
VSTI
QYAT
EDRT
QFDS
TRHQ
KNHK
TMPG
HAGL
ATAR
FHID
CCRG
FKYS
SFPH
ARVR
WVRP
STQC
TRGT
LAQL
PWGV
IHRA
GPSS
VGAL
NQTW
VYEA
YKFG
QDNE
GLQN
PNGG
ARYS
GGHP
AKDA
MLCC
SSVI
TSGA
NHPH
DAYT
DTLN
VMTN
ILFW
GWPG
LRYG
PHDI
HVTR
QHRQ
YVGY
KPYI
KPGC
HNNE
TWYA
PVLP
AHST
GAWR
IHVA
RGND
NNTS
YNPS
YLGV
AIRG
NHTW
IATQ
QHHR
VQKT
MTSI
MWNR
QKAA
HICM
LCPC
GKYR
NERW
LFLL
GVVT
HTKC
CRQG
ITNW
TYTG
SQDR
FTEY
MGKN
LSIA
ANTT
LIGM
TRML
CHTC
CSKS
AIPD
VNEA
NKYH
EVNS
CRCG
DTNK
MVQL
TKIS
RHKV
NNES
SNTC
YSRF
DHVG
PHVL
FLWS
SMRK
RVPW
RVFL
GLIC
ATKR
TYHP
PIEP
QTAI
SQLV
YHPP
HRNL
VRHH
RTIL
VDKR
GATA
DHVS
ADIK
VTWV
PLFC
QETR
MTYG
YEHN
PCAS
GNTG
EKCM
SQYR
GPMS
VQCT
CIKW
RLRE
PLPR
QITS
DRRN
MLGM
ERTL
YVDW
DGSM
EQPG
SGYS

one-hybrid fitness for binding parS DNA, 0.452:
RCVY

one-hybrid fitness for binding parS DNA, 0.453:
RMGN

one-hybrid fitness for binding parS DNA, 0.998:
RQMS

one-hybrid fitness for binding parS DNA, 0.367:
RIAM
